Source: the supplement of paper PMC4723716
± gives the uncertainty stated by the source. Whole data set: some 9,900 compounds, median “viability index relative to DMSO control” near 1, cut for the lowest 2% near 0.85. The list shows a part of the results.

Test system: Plasmodium falciparum NF54 stage V gametocytes
Assay: viability index relative to DMSO control (fraction); higher = less gametocyte killing
Settings: 2.5 µM, library set: Broad Institute DOS, incubation time: 72 h
Method: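 Broad DOS informer set and blood-stage-active DOS compounds screened in duplicate at 2.5 µM against P. falciparum NF54 stage V gametocytes with the serum-free one-step SaLSSA (1536-well): 72 h at 37 °C under low oxygen, then saponin lysis and MitoTracker Red CMXRos staining, with high-content imaging. Viability index = viable-object count divided by the plate mean of DMSO wells (0 = killed, about 1 = inactive).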

| SMILES | viability index |
| --- | --- |
| CO[C@@H]1CN(C)C(=O)c2ccc(NS(=O)(=O)c3ccc(C)cc3)cc2OC[C@H](C)N(C)C[C@H]1C | 1.15 ± 0.063 |
| CO[C@@H]1CN(C)C(=O)c2cc(NS(=O)(=O)c3cccc(Cl)c3)ccc2OC[C@@H](C)NC[C@@H]1C | 1.09 ± 0.04 |
| COc1ccc2c3c([nH]c2c1)[C@H](CO)N(Cc1cc(OC)cc(OC)c1)C[C@]31CCN(CC1)C(=O)c1cccnc1 | 1 ± 0.012 |
| COc1ccc2c3c([C@@H](CO)NC[C@]33CN(Cc4ccc(cc4)-c4ccccn4)C3)n(C)c2c1 | 0.997 ± 0.019 |
| O=C(Nc1ccc(F)cc1)N1CC(=O)N2[C@@H](CO)[C@H](c3ccc(C#Cc4cccnc4)cc3)[C@@H]2C1 | 1.11 ± 0.058 |
| C[C@H]1CN([C@@H](C)CO)C(=O)c2cc(NS(=O)(=O)c3cn(C)cn3)ccc2O[C@@H]1CN(C)C(=O)Nc1cccc2ccccc12 | 0.954 ± 0.24 |
| CS(=O)(=O)N1CC(=O)N2[C@H](CO)[C@@H](c3ccc(Br)cc3)[C@@H]2C1 | 1.09 ± 0.032 |
| N#C[C@H]1[C@H](c2ccccc2)[C@@H](CO)N1C(=O)c1cc(Cl)cc(Cl)c1 | 1.09 ± 0.015 |
| CC(C)NC(=O)N1[C@@H]2CNc3ccccc3[C@@H]2[C@@H]1CO | 1.06 ± 0.085 |
| CO[C@@H]1CN(C)C(=O)c2ccc(NC(=O)c3cc(C)on3)cc2OC[C@@H](C)NC[C@H]1C | 1.02 ± 0.026 |
| C[C@@H]1CN([C@@H](C)CO)C(=O)Cc2cc(NC(=O)C3CCCCC3)ccc2O[C@@H]1CN(C)Cc1ccc(Cl)c(Cl)c1 | 1.02 ± 0.22 |
| C/C=C/c1ccc2n(c1=O)C[C@H]1[C@H](CO)[C@@H](C(=O)NCc3ccc4c(c3)OCO4)[C@@H]2N1C(=O)COC.C/C=C\c1ccc2n(c1=O)C[C@H]1[C@H](CO)[C@@H](C(=O)NCc3ccc4c(c3)OCO4)[C@@H]2N1C(=O)COC | 1.01 ± 0.011 |
| COc1ccc2c3c([C@H](CO)NC[C@]33CCN(Cc4cc(F)ccc4F)CC3)n(C)c2c1 | 0.9313 ± 0.0015 |
| C[C@@H]1CN([C@H](C)CO)C(=O)c2c(c3ccccc3n2C)-c2ccccc2CO[C@H]1CN(C)C(=O)NC1CCCCC1 | 0.981 ± 0.12 |
| O=C1[C@H](Cc2ccc(C(F)(F)F)cc2)CCn2nncc2COC[C@H]2CCCCN12 | 1.06 ± 0.025 |
| O=C(C[C@@H]1CC[C@@H]2[C@H](COC[C@@H](O)CN2C(=O)CCN2CCCCC2)O1)NCc1ccncc1 | 1.01 ± 0.055 |
| C[C@@H]1CCCCO[C@@H](CN(C)CC2CCCCC2)[C@@H](C)CN([C@@H](C)CO)C(=O)c2cc(NS(C)(=O)=O)ccc2O1 | 1.15 ± 0.16 |
| O=C(c1ccccc1F)N1CC(=O)N2[C@@H](CO)[C@H](c3ccc(C#Cc4ccccc4)cc3)[C@@H]2C1 | 1.02 ± 0.027 |
| CCCC(=O)Nc1ccc2c(c1)C(=O)N(C)C[C@@H](OC)[C@H](C)CN(Cc1ccc(F)cc1)[C@@H](C)CO2 | 0.882 ± 0.071 |
| CN1C(=O)c2cc(NC(=O)c3cnccn3)ccc2OC[C@H]2O[C@H](CC(=O)N[C@H]3CCN(Cc4ccccc4)C3)CC[C@@H]21 | 1.05 ± 0.038 |
| CCS(=O)(=O)Nc1ccc2c(c1)C(=O)N(C)[C@@H]1CC[C@H](CC(=O)NC3CCCCC3)O[C@H]1CO2 | 1.05 ± 0.047 |
| C[C@@H]1CN([C@@H](C)CO)C(=O)c2cc(C#CC3(O)CCCC3)cnc2O[C@H]1CN(C)S(=O)(=O)c1cccc(F)c1 | 1.08 ± 0.1 |

| SMILES | viability index |
| --- | --- |
| CO[C@@H](CN(C)Cc1nccs1)[C@@H](C)CN([C@@H](C)CO)S(=O)(=O)c1ccc(F)cc1 | 1.04 ± 0.0028 |
| COc1ccc2c3c([nH]c2c1)[C@@H](CO)N(C[C@]31CN(C1)C(=O)Cc1cccnc1)S(C)(=O)=O | 1.06 ± 0.048 |
| CN(C)C(=O)c1ccc(-c2ccc([C@H]3[C@@H](C#N)N(C(=O)C4CC4)[C@@H]3CO)cc2)cc1 | 1.13 ± 0.092 |
| COC(=O)[C@H]1N[C@H]2c3ccc(C4=CCCCC4)c(=O)n3C[C@H]2[C@@H]1CO | 1.02 ± 0.04 |
| COCCN(C[C@H]1N[C@H](CO)[C@@H]1c1ccccc1)C(=O)NC1CCCC1 | 1.01 ± 0.013 |
| O=C(NCC[C@H]1CC[C@@H](NC(=O)c2ccncc2)[C@H](CO)O1)Nc1ccc(Cl)cc1 | 1.17 ± 0.023 |
| CCCC(=O)Nc1ccc2c(c1)C(=O)N(C)C[C@@H](OC)[C@@H](C)CN(C(=O)c1ccccn1)[C@@H](C)CO2 | 1.05 ± 0.019 |
| C/C=C/c1ccccc1[C@H]1[C@@H](C#N)N(c2nc(CC)cs2)[C@@H]1CO | 1.18 ± 0.016 |
| CCCNC(=O)N1C[C@@]2(C1)CN([C@@H](CO)c1[nH]c3cc(OC)ccc3c21)C(=O)NC1CCCC1 | 1.04 ± 0.055 |
| CCS(=O)(=O)Nc1ccc2c(c1)C(=O)N(C)[C@@H]1CC[C@H](CC(=O)N3CCN(C)CC3)O[C@H]1CO2 | 1.07 ± 0.034 |
| C[C@H](CO)N1C[C@H](C)[C@@H](CN(C)C(=O)C2CCCCC2)OCCCC[C@H](C)Oc2ccc(NS(=O)(=O)c3ccccc3)cc2C1=O | 1.05 ± 0.061 |
| O=C(C[C@H]1CC[C@@H]2[C@H](COC[C@@H](O)CN2S(=O)(=O)c2ccc(F)cc2)O1)NCCN1CCCCC1 | 1.113 ± 0.0099 |
| CN(C)C(=O)c1cccc(-c2ccc([C@H]3[C@H]4CN(C(=O)C5CCC5)CC(=O)N4[C@H]3CO)cc2)c1 | 1.04 ± 0.085 |
| N#C[C@H]1[C@@H](c2ccc(-c3ccccc3)cc2)[C@@H](CO)N1S(=O)(=O)Cc1ccccc1 | 0.991 ± 0.033 |
| O=C(C[C@H]1C=C[C@H](NC(=O)Nc2ccccc2F)[C@@H](CO)O1)NCc1ccc(-c2ccccc2)cc1 | 1.07 ± 0.036 |
| N#C[C@H]1[C@H](c2ccc(-c3cccc(F)c3)cc2)[C@@H](CO)N1C(=O)NC1CCCC1 | 1.108 ± 0.0084 |
| COc1ccc(NC(=O)N(C)C[C@@H]2OCCCC[C@H](C)Oc3ccc(NC(=O)c4ccncc4)cc3C(=O)N([C@H](C)CO)C[C@H]2C)cc1 | 0.99 ± 0.059 |
| COCC(=O)N1[C@H](C#N)[C@@H](c2ccccc2-c2ccccc2F)[C@H]1CO | 1.18 ± 0.064 |
| CCCNC(=O)N(C)C[C@H]1Oc2ncc(C#CC3CCCCC3)cc2C(=O)N([C@H](C)CO)C[C@@H]1C | 1.05 ± 0.078 |
| COCC#Cc1ccc([C@H]2[C@H](CO)N3C(=O)CN(C(=O)CN4CCOCC4)C[C@@H]23)cc1 | 1.1 ± 0.053 |
| COCCNC(=O)C[C@@H]1CC[C@H]2[C@H](COc3ccc(NS(=O)(=O)c4ccc(Cl)cc4)cc3C(=O)N2C)O1 | 1.08 ± 0.037 |
| C[C@@H]1CN([C@H](C)CO)C(=O)c2cc(NS(=O)(=O)c3cn(C)cn3)ccc2O[C@H]1CN(C)C(=O)Nc1cccc2ccccc12 | 0.959 ± 0.032 |
